# Source: PMC4336329 (PLoS ONE, 2015)
# In all, about 310,000 compounds went through this assay and about 14,000 (4.5%) showed an effect of 50% or more. Effects have a minus sign here. The list shows a part of the results.
# Target: human ether-à-go-go-related gene (hERG) potassium channel (human, UniProt Q12809)
# Test: primary screen, population patch clamp on CHO cells stably expressing hERG
# 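Note: peak tail current of the secondary pulse compared with the same well before compound.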
# Chain of human ether-à-go-go-related gene (hERG) potassium channel (Q12809 whole entry, looked up): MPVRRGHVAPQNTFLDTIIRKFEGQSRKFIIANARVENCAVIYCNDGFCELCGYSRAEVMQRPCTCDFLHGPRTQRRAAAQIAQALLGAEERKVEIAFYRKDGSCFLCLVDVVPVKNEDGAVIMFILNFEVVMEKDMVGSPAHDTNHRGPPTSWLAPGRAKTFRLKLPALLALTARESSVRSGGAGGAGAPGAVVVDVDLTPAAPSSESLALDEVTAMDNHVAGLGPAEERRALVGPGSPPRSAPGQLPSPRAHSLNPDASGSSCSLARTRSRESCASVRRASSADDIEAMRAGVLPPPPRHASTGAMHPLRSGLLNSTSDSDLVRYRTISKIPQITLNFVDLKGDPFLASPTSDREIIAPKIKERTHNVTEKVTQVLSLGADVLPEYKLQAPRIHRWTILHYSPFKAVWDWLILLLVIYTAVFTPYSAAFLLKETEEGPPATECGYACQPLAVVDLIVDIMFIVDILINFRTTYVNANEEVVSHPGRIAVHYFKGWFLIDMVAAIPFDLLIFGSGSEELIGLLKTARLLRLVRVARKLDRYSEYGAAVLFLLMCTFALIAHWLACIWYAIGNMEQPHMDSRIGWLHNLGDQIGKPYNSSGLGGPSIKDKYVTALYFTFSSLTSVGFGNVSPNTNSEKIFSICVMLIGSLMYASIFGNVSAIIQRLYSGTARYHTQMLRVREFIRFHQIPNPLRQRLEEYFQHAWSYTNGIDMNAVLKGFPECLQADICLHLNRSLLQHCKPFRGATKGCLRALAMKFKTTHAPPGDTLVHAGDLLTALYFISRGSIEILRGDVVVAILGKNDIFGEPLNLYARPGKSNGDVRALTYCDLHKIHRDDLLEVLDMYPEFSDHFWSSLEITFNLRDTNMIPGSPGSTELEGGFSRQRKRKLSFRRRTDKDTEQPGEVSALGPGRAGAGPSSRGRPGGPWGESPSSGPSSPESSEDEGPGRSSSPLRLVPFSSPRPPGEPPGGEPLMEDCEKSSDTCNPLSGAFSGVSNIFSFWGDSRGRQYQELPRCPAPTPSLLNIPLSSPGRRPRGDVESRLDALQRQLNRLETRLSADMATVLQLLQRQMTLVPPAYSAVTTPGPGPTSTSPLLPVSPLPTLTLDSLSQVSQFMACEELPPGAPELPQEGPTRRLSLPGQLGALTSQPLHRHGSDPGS
row,Structure (SMILES),"hERG current change (%, negative = inhibition) at 10uM [%]"
1,CC(C)Sc1nc2ccsc2c(=O)[nH]1,4.2
2,COc1cccc(C(=O)N2CCCC(Nc3ccc(C)c(C)c3)C2)c1 (stereo not shown),-0.188
3,C/C(CCc1ccc2c(c1)OCO2)=N\N=C1\NC(=O)CC(C(=O)Nc2ccccc2)S1 (stereo not shown),-6.9
4,Clc1ccc(-c2nnc(SCc3cn4ccsc4n3)n2CC2CCCO2)cc1 (stereo not shown),-29.2
5,CCCCN1C=C(C(=O)OC)C(c2ccccc2Cl)C(C(=O)OC)=C1,-6.65
6,Cc1ccccc1C(=O)Oc1ccccc1N1C(=O)C2CC=CCC2C1=O (stereo not shown),0.103
7,COc1ccc(-c2nnn(Cc3ccccc3)n2)cc1OC,2.97
8,Cc1ccc(C2CN(C)CC2C(=O)c2ccc(F)cc2)cc1 (stereo not shown),-53.2
9,COc1cc2c(cc1OC)CN(C(=O)c1ccc3nc[nH]c3c1)CC2,-1.39
10,CCOC(=O)N1C2=NC(C(=O)OC)=C(C(=O)OC)[C@@H]3Nc4ccccc4[C@]23C[C@H]1C(=O)OC,-6.95
11,COC(=O)c1[nH]c2c(c1C)C(=O)CC(c1cccc(OC)c1)C2 (stereo not shown),-7.83
12,COc1ccc(/C=C/c2cc[n+](C(=O)Cc3ccccc3)cc2)cc1.[Cl-],-51.2
13,CCOC(=O)c1cn2nc(Oc3ccc(OC)cc3)ccc2n1,4.29
14,Cc1c(NC(=S)N/N=C/c2ccc(Br)cc2)c(=O)n(-c2ccccc2)n1C,12
15,COc1ccc2c(c1)C(=O)Cc1ccccc1O2,0.762
16,CCCCN(C1CCS(=O)(=O)C1)S(=O)(=O)c1ccc(C(C)C)cc1 (stereo not shown),12.1
17,COc1cccc(/C=N/NC(N)=S)c1OS(=O)(=O)c1ccccc1,9.82
18,CCC(CCC(=O)Nc1cccc([N+](=O)[O-])c1)C(=O)O (stereo not shown),20.2
19,Cc1cc(C)c(OCC(=O)OCCNC(=O)c2cccnc2)c(C)c1.Cl,-17
20,COc1ccc(C)cc1Nc1c2c(nc3ccccc13)CCC2,-56.7
21,CCN(CC(=O)Nc1c(F)cccc1F)C(=O)C1CCN(C(=O)Nc2ccccc2)CC1,1.32
22,CSc1ccc(NC(=O)C(C)N2CCN(C)CC2)cc1.O=C(O)C(=O)O (stereo not shown),-24

row,Structure (SMILES),"hERG current change (%, negative = inhibition) at 10uM [%]"
1,CCCCNC(=O)[C@H]1C[C@H]1[C@@H](O)[C@H](CO)NC(=O)[C@H](COCc1ccccc1)NC(=O)OC(C)(C)C,21.5
2,CCOc1cc(C#N)ccc1OCC(=O)N1CCN(C(=O)c2cccs2)CC1,-67.7
3,Cn1nc(C(=O)Nc2ccc(S(=O)(=O)N3CCCCC3)cc2)ccc1=O,-13.3
4,CC(CN1CCOCC1)OC(=O)Cc1ccc(Cl)cc1.Cl (stereo not shown),-8.7
5,COC(=O)c1ccc(NC(=O)CSc2nc3[nH]ncc3c(=O)[nH]2)cc1,14.3
6,O=C(CN(C(=O)Cn1nnc(-c2cccs2)n1)c1ccc2c(c1)OCCO2)NC1CCCCC1,-13.2
7,COc1cc(C(CC(=O)Nc2ccc(Cl)cn2)N2Cc3ccccc3C2=O)cc(OC)c1OC (stereo not shown),-68.1
8,O=C(O)CC1Sc2nc3ccccc3n2C1=O (stereo not shown),8.05
9,CN1CCN(CCNC(=O)c2ccc3nc(-c4ccc(F)cc4)c(-c4ccc(F)cc4)nc3c2)CC1,-50.6
10,N#Cc1nc(Cc2cccc3ccccc23)oc1N1CCCCC1,-0.431
11,CCOC(=O)Cn1nc(C)n(-c2ccc(C(C)(C)C)cc2)c1=O,-8.38
12,Cc1nnc(SCC(=O)Nc2ccccc2)c2ccccc12,7.89
13,Clc1cccc(Nc2nc(-c3ccncc3)cs2)c1,17.5
14,O=C1Nc2ccccc2N(O)N1c1cc(-c2ccccc2Cl)no1,6.26
15,CC1=C(C(=O)OC(C)C)C(c2ccsc2)NC(=O)N1C (stereo not shown),9.03
16,O=C(c1ccc(F)cc1)N1CCCC(C(=O)N2CCCCC2)C1 (stereo not shown),16.5
17,COc1ccc(CCNC(=S)NNC(=O)c2c(Br)c(C)nn2C)cc1OC,11.3
18,O=C(O)c1ccc2cccc(O)c2n1,20.7
19,O=C(NCCN1CCOCC1)c1cc([N+](=O)[O-])cc([N+](=O)[O-])c1,18
20,CC(C)CCNC(=O)COc1ccc2c3c(c(=O)oc2c1)CCC3,4.09
21,N#CC1(NC(=O)COc2ccc3oc4ccccc4c3c2)CCCCC1,12.1
